Assay results: article PMC6919601, “Identification of Plasmodium dipeptidyl aminopeptidase allosteric inhibitors by high throughput screening” (PLoS ONE, 2019)
Values joined by “and” are separate entries in the source; they are usually repeats but may differ in a detail not shown here. Equal entries are not always repeated. About 230 (0.21%) of roughly 110,000 compounds showed an effect of 50% or more. This is one part of the list. Where a SMILES comes first, the peptide text is derived from it.

The compounds below were run against DPAP1 (Plasmodium falciparum, UniProt Q8IIJ9) (assay: primary screen, percent inhibition; read by cleavage of a fluorogenic dipeptide substrate; higher = more effect of the substance).
Chain of DPAP1 (Q8IIJ9 whole entry, looked up): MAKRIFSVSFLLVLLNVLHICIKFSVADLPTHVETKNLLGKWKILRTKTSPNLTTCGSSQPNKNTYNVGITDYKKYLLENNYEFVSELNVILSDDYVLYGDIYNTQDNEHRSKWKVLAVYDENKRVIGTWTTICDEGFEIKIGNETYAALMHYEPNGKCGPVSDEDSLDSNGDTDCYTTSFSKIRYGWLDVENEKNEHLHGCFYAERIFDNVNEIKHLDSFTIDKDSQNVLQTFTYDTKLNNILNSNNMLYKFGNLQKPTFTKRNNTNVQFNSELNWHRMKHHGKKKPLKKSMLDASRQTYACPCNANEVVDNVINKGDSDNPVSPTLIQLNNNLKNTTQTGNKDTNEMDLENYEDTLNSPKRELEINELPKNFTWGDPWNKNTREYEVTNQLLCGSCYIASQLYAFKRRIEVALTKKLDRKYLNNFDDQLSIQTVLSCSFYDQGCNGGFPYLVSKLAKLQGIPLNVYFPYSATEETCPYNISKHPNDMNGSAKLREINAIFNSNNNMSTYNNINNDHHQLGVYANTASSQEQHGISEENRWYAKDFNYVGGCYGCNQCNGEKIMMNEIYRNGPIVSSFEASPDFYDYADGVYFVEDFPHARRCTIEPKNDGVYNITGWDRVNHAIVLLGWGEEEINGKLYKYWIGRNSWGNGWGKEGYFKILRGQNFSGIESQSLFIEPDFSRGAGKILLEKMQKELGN
Parameters: species or system P. falciparum D10 trophozoite lysates; single well
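Further: 30 min substrate incubation versus DMSO and 10 µM JCP410 controls.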

| Structure (SMILES) | % Inhibition @ 10 uM |
| --- | --- |
| CCCCCc1ccc(-c2ccc(-c3noc(C4CCC(CCCCC)CC4)n3)cc2)cc1 (stereo not shown) | -6.18% |
| COc1ccc(C2C(=O)N(CCc3ccccc3)CC(=O)N2CCC2=CCCCC2)cc1 (stereo not shown) | 5.89% |
| O=C(NC1CCCCC1)c1cccc(S(=O)(=O)N2CCCCC2)c1 | 1.63% |
| CCSCCC(NC(=O)OCc1ccccc1)C(=O)NCC#N (stereo not shown) | -3.49% |
| CC(=O)NCCc1nc2ccccc2n1Cc1c(C)c(C)cc(C)c1C | 1.12% |
| FC(F)(F)c1cc(-c2ccc(Cl)cc2)nc2ccnn12 | -0.318% |
| N#CCNC(=O)[C@H](CCS(=O)(=O)Cc1ccccc1)NC(=O)c1ccccc1 | 12.3% |
| O=C(O)C1Cc2c([nH]c3ccccc23)C(c2cc(Br)ccc2O)N1 (stereo not shown) | 13.2% |
| O=C1NC(=O)/C(=C\c2cccc3ccccc23)S1 | 17.3% |
| COc1cc(CN2CCN(C(C)C)CC2)cc(OC)c1OC | 5.94% |
| O=C(O)c1ccccc1C(=O)Nc1ccc(N2CCN(c3ccc(F)cc3)CC2)cc1 | -3.92% |
| Clc1ccc(C2=Nn3c(nnc3-c3ccc4c(c3)OCO4)SC2)s1 | -2.56% |
| C=CCNC(=O)CSc1nc(-c2ccc(OC)cc2)cc(C(F)(F)F)n1 | 3.88% |
| O=C1CC(N2CCCCC2)C(=O)N1c1ccc(N2CCCCC2)cc1 (stereo not shown) | -1.38% and -4.12% |
| O=C(COc1ccc(Br)cc1)Nc1ccccc1C(=O)Nc1ccccc1 | 1.07% |
| CCOC(=O)N1CCC(/N=c2/c(N(CCc3ccccc3)Cc3ccccc3)c(O)c2=O)CC1 | -3.21% |
| O=C(O)C1CCN(S(=O)(=O)N2CCOCC2)CC1 | -0.256% |
| O=C(Nc1ccccc1O)/C(=C\c1cccs1)NC(=O)c1ccccc1 | 3.46% |
| Cc1nn(CC(=O)NCCCN2CCC(N3CCCCC3)CC2)c(=O)c2cccn12 | -0.229% |
| Cc1cc2ccccc2n1CCNC(=O)c1cc(Br)ccc1Cl | 1.39% |
| O=c1/c(=C/c2cccc(F)c2)sc2nc(-c3ccc(F)cc3)nn12 | 6.96% |
| O=C(O)C1CC=CCC1C(=O)N1CCc2ccccc21 (stereo not shown) | -0.318% |
| Cc1c(C(=O)OCCOC(C)C)[nH]c2c1C(=O)CC(C)(C)C2 | 1.76% |
| Cc1nc2nc(NCc3cccs3)nn2c(C)c1Cl | -2.4% |
| Cc1cc(OCC(=O)N(C)C2CCCCC2)ccc1Cl | 3.47% |

| Structure (SMILES) | % Inhibition @ 10 uM |
| --- | --- |
| O=C(NCCCc1nc2ccccc2n1CCOc1ccccc1Cl)c1ccco1 | -2.99% |
| O=C1/C(=C\c2ccc(C(F)(F)F)cc2)Cc2ccccc21 | 5.5% |
| COc1cc(CO)ccc1Oc1nnnn1-c1ccc(C(N)=O)cc1 | 0.032% |
| COc1cccc2c1OC1(C)CC2C(S(=O)(=O)c2ccc(C)c(C)c2)C(=O)N1C (stereo not shown) | 0.953% |
| Cc1nc2c(c(C)c1CCC(=O)NCc1ccccn1)c(=O)n(C)c(=O)n2C | 6.84% |
| COc1ccc(CNC(=O)CCS(=O)(=O)Cc2ccc(C)cc2)c(OC)c1 | -1.21% |
| Cc1ccc(-c2nn(CC(=O)NCc3ccccn3)c(=O)c3ccccc23)cc1S(=O)(=O)N(C)C | -4.91% |
| COc1ccc(-c2[nH]nc3c2C2(C(C#N)=C(N)O3)c3ccccc3-c3ccccc32)cc1 | 2.32% |
| Cc1ccc(S(=O)(=O)NCC(=O)N2CCCC2C(=O)O)cc1 (stereo not shown) (HELM PEPTIDE1{[Cc1ccc(S(=O)(=O)[*:2])cc1].G.[O=C(O)C1CCCN1[*:1]]}$$$$V2.0) | -0.0735% |
| COc1cccc(-c2nn(C)c3sc(C(=O)NCc4ccccc4OC)cc23)c1 | 2.69% |
| Cc1nc2c(-c3ccccc3)c(C)nn2c(C)c1CC(=O)NCc1ccccc1Cl | -0.933% |
| CC(Oc1cccc2cccnc12)C(=O)O (stereo not shown) | 6.12% |
| CCc1cccc(C)c1NC(=O)COc1ccccc1 | -5.32% |
| Cc1cc(C)c(C)c(OCCCN2CCCC2)c1 | -1.64% |
| O=C1CC(c2ccc(C(F)(F)F)cc2)C2=C(CC(c3cccs3)CC2=O)N1 (stereo not shown) | 3.67% |
| CC(C)Oc1ccc(CNC(=O)Cn2ccc3cc(S(=O)(=O)N4CCCC4)ccc32)cc1 | 1.76% |
| Cc1ccc(OCCCCN2CCCCC2)c(C)c1 | -0.351% |
| O=C1OC(c2ccc(Br)cc2)=N/C1=C1/OC(=O)c2ccccc21 | -6.06% |
| CCn1c2ccccc2c2cc(CNc3ccc(F)c(F)c3)ccc21 | -0.603% |
| COc1ccc(C2/C(=C(\O)OC3CCCCC3)C(C)=Nc3nnnn32)c(OC)c1OC (stereo not shown) | -3.13% |
| CC1(C)CC(=O)C(=C2NC3(CCCCC3)Cc3ccccc32)C(=O)C1 | 1.37% |
| Cc1nc2c(c(C)nn2C(C)(C)C)c(C)c1CCC(=O)N(C)Cc1ccccc1 | 0.953% |
| CC(CNC(=O)c1cc(C2CC2)[nH]n1)c1ccccc1 (stereo not shown) | -2.74% |
| C=CCC1CCCCC12NC(=O)NC2=O (stereo not shown) | 3.82% |
